# About 540 (0.36%) of roughly 150,000 compounds showed an effect of 50% or more. Some of the results follow.
# System: Plasmodium falciparum
# Test: Primary screen in NF54 nanoGlo assay, in single point, at 2uM, 72h; a lower Z score goes with more inhibition
# Format: functional, Erythrocyte
# Settings: timepoint 72 hour
Compound,% Inhibition [%],Z score
CC(C)c1nnc(NC(=O)c2ccc3c(c2)OCCO3)s1,8,-1.78
C[C@@H](c1ccccc1)S(=O)(=O)N(C)Cc1cccnc1C(F)(F)F,2,-0.18
O=C(NC1CC1)[C@@H]1CNCCN1C(=O)c1ccccc1Oc1ccccc1,-7,0.7
Cc1ccc(-c2ncc(C)c(N(C)C)n2)c(F)c1,1,-0.09
C[C@@H](CN1CCOCC1)Nc1ccccc1S(C)(=O)=O,-6,0.65
CC(=O)N[C@@H](Cc1c[nH]cn1)C(=O)N1CCc2c(nc(C)nc2N(C)C)C1,-10,1.29
COC[C@H](C)NC(=O)c1nc(C(F)(F)F)ccc1Br,-3,0.3
C[C@H]1CCCN(S(=O)(=O)NC2CCCCCC2)C1,-6,0.63
Cc1csc(C2(NC(=O)Nc3cn[nH]c3)CCC2)n1,5,-0.94
Cc1cccc(Cn2nc(C)cc2NC(=O)NCCc2c(C)n[nH]c2C)c1,-8,1.19
Cc1nsc2nc(-c3ncc[nH]3)c(-c3ccccc3)cc12,-3,0.53
O=C(Cn1c(-c2ccccc2)cc2ccccc21)N1CCN(c2ccccc2O)CC1,13,-1.66
CCOCC(C)(C)NC(=O)N(C)Cc1nc(C)c[nH]1,-9,1.51
Cn1nccc1C(=O)N(Cc1ccccc1)c1nc2ccccc2s1,-5,0.93
Cc1cccnc1C(=O)N1CCCC[C@@]1(C)c1noc(C2CC2)n1,-11,1.33
O=S(=O)(N1CCCCC1)N1CCCN(CCn2cc(Cl)cn2)CC1,-24,2.54
O=C(NCc1cnc2nccn2c1)c1cccnc1OCC(F)F,-15,3
CCn1c(C2CCC2)nnc1N1CCn2nc(C)nc2C1,-2,0.32
O=C(Cn1cnnn1)N1CCO[C@H](c2ccc(OC(F)F)cc2)C1,-12,1.91
CO[C@@H](C)CS(=O)(=O)Nc1ccccc1Nc1ccn(C)n1,-5,0.88
O=C(NCC1(N2CCOCC2)CCCCC1)Nc1cccc2[nH]nnc12,-10,1.77
COc1cccc(NC(=O)c2cc(C(=O)Nc3cccc(OC)c3)cc(N3C(=O)c4ccccc4C3=O)c2)c1,18,-2.84

Compound,% Inhibition [%],Z score
CCn1nncc1CNC[C@@]1(C)CC1(C)C,-5,0.71
Cc1n[nH]c(C)c1NC(=O)CN[C@@H]1c2ccccc2CCC1(C)C,-15,2.73
CCCC1(CCC)NC(=O)N(CC(=O)N[C@H]2CCCc3ccccc32)C1=O,-8,1.08
O=C(NC[C@H]1CCCO1)/C(=C/c1ccc(-c2ccc(Cl)cc2)o1)NC(=O)c1ccc(Cl)cc1,4,-0.66
O=C(Cn1ccc(C(F)(F)F)n1)N1CCC(c2ccccc2)=N1,-3,0.62
O=C(CC1CCCC1)Nc1cccc(-c2cc3ccccc3[nH]2)c1,18,-2.05
O=C1COc2cc(C(=O)N3CCC[C@H]3c3ccc4c(c3)OCCCO4)ccc2N1,9,-1.2
Cc1nc2c(s1)[C@@H](NC(=O)Cn1nc(C)c3cccnc31)CCC2,-6,1.11
COC(=O)CN(Cc1cnn(C)c1)C1CCCC1,3,-0.39
O=S1(=O)N=C(NCc2cccnc2)c2ccccc21,0,-0.03
COc1cccc(-c2ccccc2NC(=O)C2CCN(C[C@@H]3CC=CCC3)CC2)c1,3,-0.61
O[C@H]1C[C@@H](c2cc(N3CCN(c4ncccn4)CC3)ncn2)C1,-18,2.35
Cc1cc(F)c(CN[C@H]2C[C@H](C(=O)O)C2)c(F)c1,1,-0.13
COCC(NC(=O)c1cc[nH]c1C)C1CCCO1 (stereo not given),-10,1.9
N#CCCN1CCN(CC(F)(F)C(F)F)CC1,0,0.06
C=CCN1Cc2cccc(OC)c2O[C@@H](C)C1=O,-7,1.03
CN(Cc1cccnc1)[C@@H](/C=C/C(C)(C)C)C(=O)O,1,-0.11
CC(=O)N1CCN(Cc2csc(-c3ccco3)n2)CC1,0,-0.06
COC(=O)N1CCC(CCC(=O)N(C)Cc2ccccc2)CC1,-3,0.47
Cc1cc(NC(=O)C(C)S(=O)(=O)C2CCCOC2)on1 (stereo not given),-3,0.51
COc1ccc(N[C@@H](C)c2c(F)cccc2F)cc1S(=O)(=O)N1CCOCC1,-10,1.25
Nc1ccnc(N2CCC[C@@]3(CCC(=O)N(CCO)C3)C2)n1,-8,0.97

Compound,% Inhibition [%],Z score
O=S(=O)(CC1CCCCC1(F)F)N1CCCC(CCO)CC1 (stereo not given),-13,2.48
Cc1cnc(N)c(S(=O)(=O)N(C)Cc2nnc[nH]2)c1,-11,1.85
O=C(Cn1cnc2nc(N3CCCC3)sc2c1=O)NCc1ccc2c(c1)OCO2,-1,0.2
O=C(CN1CCC(NC(=O)COc2ccc(Br)cc2)CC1)Nc1ccccc1,-17,1.59
O=C(c1ccccc1-c1ccccc1)N1CCCn2nc([C@@H](O)CO)cc2C1,-10,1.93
Cc1nc2c(o1)CCCC2NCC(c1ccco1)N1CCCC1 (stereo not given),3,-0.49
CC(NC(=O)Nc1ccc2c(c1)OCO2)C1CCCO1 (stereo not given),-6,0.76
Cn1cc2c(n1)c(=O)n(Cc1ccc(F)cc1)c(=O)n2CC(=O)Nc1ccc2c(c1)OCO2,7,-0.96
CC[C@H](NC(=O)Nc1ccccc1)c1ncnn1CC,-9,0.78
Cc1ccc(C(=O)c2ccc(Br)cc2)cc1S(=O)(=O)Nc1cccnc1,-44,5.19
COc1cc(N2CCC3(CCC(=O)N(CCc4ccncc4)C3)CC2)nc(N)n1,-4,0.6
Cc1nnc(CN(C)Cc2cscn2)o1,-8,1.26
Cc1ccc(NC(=O)C[C@@H]2OCCc3ccsc32)c(-c2nc(C3CC3)no2)c1,-10,1.76
COc1cccn(Cc2noc(C3CCCC3)n2)c1=O,-17,2.62
CCOC(=O)N1CC[C@H](NCc2ccc(Br)o2)C1,-13,1.88
CCN(C)C1(CNC(=O)Nc2ccc(C(N)=O)c(Cl)c2)CCCC1,-1,0.13
OCc1cc(CC2(NCc3cccc4c3OCO4)COC2)no1,-5,0.82
Cn1cc(S(=O)(=O)Nc2nc3ccccc3nc2N2CCc3ccccc3C2)cn1,2,-0.27
NC(=O)Cn1ccnc1[C@H]1CCCN(C(=O)c2ncc(F)cc2F)C1,-2,0.35
Cc1ccc(NS(=O)(=O)C[C@H]2CCCCO2)cc1-c1ncco1,5,-0.61
O=C(NCCc1csc(-n2cccn2)n1)c1ccccc1,3,-0.39
CCC[C@H]1C(=O)NCCN1C(=O)c1ccc(-n2cccn2)cc1,-13,2.03

Compound,% Inhibition [%],Z score
COc1ccc(C2=[N+]([O-])C(C)(C)C(C)(C)[N+]([O-])=C2)cc1,-8,1.15
CC(C)CCOc1ccc(C(C)NC(=O)[C@@H]2CCCN2C(=O)NC(C)C)cc1 (stereo not given in full),-8,0.81
CN1CCCC[C@H]1C(=O)NCCc1cccc(Cl)c1,-11,2.17
O[C@H]1[C@H](NCc2ccccc2)[C@H]2CO[C@H](O2)[C@@H]1n1cncn1,31,-3.53
CCN(CC(=O)NCc1cccs1)C(=O)C(C)(C)Oc1ccc(Cl)cc1,-15,1.75
Cc1cc(C(=O)N(C)C2C3CCOC3C2(C)C)on1 (stereo not given),-10,1.43
Cc1ccnc(CNc2cccc(F)c2)n1,-13,1.9
CCN(C(=O)c1ccccc1N1CCC(=O)NC1=O)[C@H]1COC[C@@H]1O,-12,2.24
Cc1c(C(=O)N2CCCCCC2)cnn1-c1cc(-c2nc(C(C)(C)C)no2)ccn1,-7,1.04
CCNS(=O)(=O)CCNC(=O)[C@@H](C)CC1CCCC1,-7,0.89
C=CCNC(=O)c1coc(COc2ccc3c(c2)[C@H](c2ccc(F)cc2)N(C(=O)C(C)C)CC3)n1,-25,4.81
Cc1ccc2nc(-c3ccsc3)c(NC3CCCC3)n2c1,-2,0.28
CC(C)Cn1nccc1C(=O)N1C[C@H](Cc2ccccc2)[C@@H](O)C1,-13,1.32
Cc1cc(Cl)ccc1OCC(=O)Nc1nc2[nH]c(-c3ccccc3)cc(=O)n2n1,-6,0.82
O=C(Cn1ccnn1)N(C1CCCCC1)[C@H]1CCS(=O)(=O)C1,21,-2.73
O=C(c1ccccn1)N1CCc2[nH]c(-c3cn[nH]c3)nc2C1,-12,1.73
COC(=O)CN1CCCN(C(=O)Nc2c(C)n[nH]c2C)CC1,-7,1.02
COC1CCCN(c2cc(C)nc(N3CCCC(OC)C3)c2C#N)C1 (stereo not given),-20,2.27
CCC1(CC)CNC(=O)[C@H]1NC(=O)c1occ2c1CCOC2,7,-0.86

# Reference: ChEMBL document CHEMBL4888484, “Replenishing the malaria drug discovery pipeline: Screening and hit evaluation of the MMV Hit Generation Library 1 (HGL1) against asexual blood stage Plasmodium falciparum ,using a nano luciferase reporter read-out” (2022)
